# Experimental data: the supplement of paper PMC11417369
# This is one part of the list.
# Test system: PfSIP2 AP2 domain 1 (GST-tagged)
# Test: gcPBM binding intensity (ln(normalized median fluorescence intensity)); higher = stronger DNA binding
# Summary of the method: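 Plasmodium falciparum DNA-binding domains carrying a GST tag were expressed in E. coli and applied for 1 h, at about 25 μg on average, to an Agilent 4 × 180k array. The array held primer-extended double-stranded 36-bp intergenic genomic probes together with negative controls, and binding took place in 1× PBS with 1% milk, 0.2 mg/ml BSA, 0.5% salmon testes DNA and 0.03% Triton X-100. An Alexa488 anti-GST antibody detected bound protein, and the array was scanned at 488 nm. Binding intensity is taken as the highest Masliner-normalised natural-log median intensity across replicate spots of either probe orientation.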
row,Sequence,gcPBM binding intensity (ln)
1,AATACATGAACTTAAAGTACTAAAAAAAAAATAATA [XGTACX_site1956],6.92
2,CATATAAGACAAAAGGTGCAATTTTAATGCTTTTAT [GTGCAC_site9432],9.98
3,AACCCTTTTGATTTTTCTTTTTTTTTTTTTTTAAAT [CACACA_negctrl_site1667],6.65
4,AGAAGGATATTATGAAGTACACATATTGTATATGGT [XGTACX_site7503],6.79
5,ACAGTTTGTCTGAGTAGTACATAAATACTTGAAAGG [XGTACX_site7792],7.22
6,TAGTAAAATGGAACACGTACATATATCTATGTATAA [XGTACX_site6103],6.79
7,CCATATATAATGACATGTACTCAAAAAAAAAAAAAA [XGTACX_site685],7.32
8,TTTTTAAAAAAAAATAGAGAGTCAAAGTATGTGGCG [CACACA_negctrl_site194],7.33
9,ATACATATATATATATGTACATATATTTATATTTAT [XGTACX_site3155],7.36
10,TTTCTCTTTTTTTGGGGTACAACCAATCCTATAATA [XGTACX_site297],7.08
11,TAATTCAAACGTGTATGTATATTACTCGAAGAAATA [CACACA_negctrl_site1779],6.86
12,AAGTTCAAAATAAATGGTACAGAAGTATATATATCA [XGTACX_site174],6.92
13,TAAAAAAAGAGATATTGTACACAAAAAAATTTTACT [XGTACX_site1342],7.05
14,TAGAAAAAAAAATACATACACACAATATATTTATTT [CACACA_site3123],6.74
15,AAAATCTAGGTATTTATACACACTAATATAATATAC [CACACA_site8108],7
16,TATATATTTGTGAAAATATTAAAATAAATAAATAAA [CACACA_negctrl_site295],7.05
17,ATATATAATATAATATGTACATATAATCAATCCTGT [XGTACX_site8694],7
18,ATTTAGTATTCGAAACGTACACATATATATATATAT [XGTACX_site3910],9.5
19,ATATTTTTTTTCTTCACACACATGAGTTATAAATAA [CACACA_site7498],7.43
20,AATGAAACAATACCCAGTAAAAAAAAAAAATAAATA [TGCATGCA_negctrl_site205],6.69
21,TGTAATCTGGAGAAGAGTACACAGTATCTGGTAGCT [XGTACX_site4935],6.95
22,GGACGTATTAAAAGGCGTACACTAAATATTTTATGT [XGTACX_site146],7.05

row,Sequence,gcPBM binding intensity (ln)
1,TAATATTTATATAATTGTACTTTGTTTGTAAATCCA [XGTACX_site7292],6.72
2,ATTATAATTTTGTAAAGTACATATTATTATATATTA [XGTACX_site7191],6.81
3,TATTTATATAATCCTATAATATTACTACTATCTTTA [GTGCAC_negctrl_site342],6.84
4,AAGATAATTACGCACACACACACACGCCCACAACTA [CACACA_site7255],7.34
5,AAGGTAAAATATAAGTGTACTTTTTCTTAATCTTCG [XGTACX_site514],7.07
6,ATACACAAATGCATACGTACATATATATATATATAT [XGTACX_site3504],9.8
7,CATATAAGAATCTTCTGTACTTATAAGAAAAGACAT [XGTACX_site8135],6.97
8,TAAAACAAAATAACATGTACAAAAAAAAAAAAAAAA [XGTACX_site2915],7.1
9,AAAAAAAAAAAAACAACACACAATGTTTTATTTTAC [CACACA_site1613],7.09
10,ATGTAATATGTTCATGCATGTAAAATTACATTTAGA [TGCATGCA_site852],6.83
11,ATATCTATAATAAACACACAAATAGATATAACATAT [CACACA_site7702],7.07
12,AAAAAAAAATTAAAAACACACATATATATATATATA [CACACA_site1580],9.69
13,TATAAATAAAGACTTTTTTCTAACTTTTTTTTGTAT [CACACA_negctrl_site1015],6.6
14,TATATATATATATATGTGCACATTTATTGCCTTTGC,9.4
15,AAAATTTAATATGAATGTACATAAAAAAAAAAAAAA [XGTACX_site6719],7.03
16,TAAGTATATTTCTGCACACAAAAAAAAAAACCAAAA [CACACA_site4056],7.18
17,ACTCTCTTATATTAAACACACATATATATATGTATA [CACACA_site2703],7.52
18,TCAAACAAAAAAGAAACACACACTAATTAAATTTTC [CACACA_site1101],6.75
19,AATAATTTGAAGGTGATAGTATTACATGGGAAATCA [CACACA_negctrl_site301],6.91
20,AAATCGAACAAATTATGTACTAAAAAAAAAATTTAT [XGTACX_site6399],6.89
21,GTACATATAAATATTACACACATTTTCATTTTTAAC [CACACA_site1986],7.16
22,TTATATGCATCCAAAAAGGAATGTTTTTAGAGAATC [CACACA_negctrl_site1062],6.8

row,Sequence,gcPBM binding intensity (ln)
1,ATCTTTCGAACATGTACACACAGAAAAAAAAAAAAA [CACACA_site5393],7.6
2,GTGTAGGCAAAAAGTTGTACGCCTAAAATCTATATA [XGTACX_site8912],6.96
3,TGTATAGGTACAATAATTATAGAGTAATTGACATTA [GTGCAC_negctrl_site183],6.88
4,TAAAAAGTATATGGTCGTACACTTTTGATTAATACA [XGTACX_site7804],6.87
5,TTATTTTTTTCAACAAGTACTAATACAAAATAAAAC [XGTACX_site6460],7.37
6,GATTAAATCGATAATACACACTAAATGTAAAACATT [CACACA_site4248],6.82
7,TTGTATTATTAAATTATAAAACCTATAATTATGGAT [GTGCAC_negctrl_site340],6.72
8,TGATAACTAAATACATGTACAAATTAAAAAGAAAAA [XGTACX_site3080],7.01
9,TAATGATTATATGACTGTACATTTGTAGGTATAATT [XGTACX_site3373],7.14
10,CATATTTATAAATATAAACACACAACATTATATGCA [CACACA_site9065],7.04
11,GCAAAATAAAGAAGCACACAAAAATGAAATATATAT [CACACA_site3651],7.07
12,TATACGTAATAATATGCACACAAATAAACTTTATAA [CACACA_site9166],8.88
13,AAAAAAAATACATACATACACACATATATATATATA [CACACA_site912],9.31
14,TCTTGGTATATTCAATATATGATTTATATAATTCAA [CACACA_negctrl_site818],6.99
15,ACTAGTAAATTTATATGTACATATATATATATATAG [XGTACX_site2502],7.64
16,ATTTATATATATCATACACACTAATATGTATATTAT [CACACA_site5816],7.04
17,GAATGAATGATAAATTTTTTTTTCTTTTTTTTTTTG [CACACA_negctrl_site333],6.54
18,TGTTATATATATACAAACATACACATTTATAAACAA [TGCATGCA_negctrl_site235],7.12
19,AAAAAAAGAAAAAAAACACACACAAATATAAATAAA [CACACA_site8309],6.71
20,TTATGATCATTTATATGTACACATAATTTTTGTGCT [XGTACX_site5568],7.5
21,TATTAATTTCTTTTTTCTCATCACTTTCAAAATGAA [CACACA_negctrl_site1055],6.91
22,GTTCAAATTCTTATACCTTTTTATTGAGCCATAATA [CACACA_negctrl_site210],7.12

row,Sequence,gcPBM binding intensity (ln)
1,AGCATATATTAAACATGTACATAAATATATTATATA [XGTACX_site1451],6.98
2,ATAAAATGGGCAAACACACACAAAAAAAAGATATAT [CACACA_site1648],7.07
3,AGGGGCGAAACAAAGGTGCTTTTATAAAATATGTAA,8.36
4,CCCAATAATTAAACAACACACATATATATCTGTAAT [CACACA_site5667],7.14
5,AGAAATCATCTGAATTGTACTAACAATTTTTTTTAA [XGTACX_site6191],6.79
6,AGAGAAGAAAACAAAACACACACATATATCTTAATA [CACACA_site8699],6.85
7,AACTTAAAAAAAAAAAAAAAAAAAAAAAAAAAAAAA [GTGCAC_negctrl_site34],6.94
8,CTTAAATCTACTATTTGTACATATTTTATTATTAAA [XGTACX_site6151],7.19
9,TATTATAATAAAATATGTACACACATACACACATAT [XGTACX_site2360],7.35
10,TAGATAAAATTAAAATGTACAAACCTTTTCCCTTAT [XGTACX_site1136],6.6
11,ATATATATATATATATGTACTTATTTATTTTATATA [XGTACX_site8810],9.97
12,TTTTTTTTATCAAATTGTACATATACAAAGGTGATC [XGTACX_site8054],6.71
13,ATTTTATTTTTTAATAGTACTCATTTTTTATGTGAA [XGTACX_site5494],6.98
14,TATATATATATAAAGGTGCATATCTTTACGTATGTC [GTGCAC_site9665],10.1
15,ATATATATATATGATACATGCATATATTTTTTCTTC [TGCATGCA_site216],9.25
16,AACACCAAACAAAGGTGTACATATAGGAAAAAATCT [XGTACX_site1006],7.02
17,TACACGCAGAAACACACACACACACCCATATATATA [CACACA_site637],7.5
18,TATCACATATTATGATGTACAAAGATTCTGACTAAT [XGTACX_site2770],6.82
19,AGAGGGGAAAACATGATGCACTAGTATAACCAAGAA,9.55
20,TTTCCTTATAAAAATACACACAAACTTTCATTAAAA [CACACA_site5953],7.02
21,TCATATTATTATATATGTACATACCAATATATTATA [XGTACX_site2988],6.97
22,TAGATATGTCTAAAAAGTACTTTCTATAACAATTCT [XGTACX_site6678],6.9
